Measurements from PubChem BioAssay AID1508624 (National Center for Advancing Translational Sciences (NCATS), 2021).
About 120 (0.25%) of roughly 48,000 compounds were called active. Inconclusive results (about 4%) are left out. Calls come from the whole dose curve; as a rule, active = well fitted activation curve with a large enough effect; inconclusive = small, poorly fitted or top-dose-only effect, or another doubt; inactive = no such curve, though single readings can be large or run the other way. The list shows a part of the results.

experiment: Primary qHTS for Identification of Small Molecule Activators of Huntingtin-Antisense Promoter Activity; settings: HEK293 HTT-AS promoter firefly luciferase reporter, 24 h; series mostly up to 57.5 µM; activity change, positive = activation: at the top concentration; note: nearly all actives have a fitted effect of over 55% in size
Outline: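 HEK293 cells carrying firefly luciferase reporters were seeded at 2,500 per well in Opti-MEM and cultured for 24 h. They were then treated with compounds at up to 57.5 uM final for 24 h at 37 degrees C before Dual-Glo luminescence readout.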

Activity change, positive = activation, inactive:
Cc1cc(-c2ccc(C)c(S(=O)(=O)N3c4ccccc4CC3C)c2)on1 (centres undefined) -46.9%
CCOC(=O)c1c(NC(=O)/C=C/c2ccc(OCC)cc2)sc2c1CCCC2 3.43%
O=C(NCc1ccc2c(c1)CCN2C(=O)c1ccc(Cl)cc1)c1ccco1 -3.13%
O=C(Cn1c(=O)n(-c2ccccc2)c(=O)c2c3c(sc21)CCCC3)Nc1ccccc1 -22.5%
CCOC(=O)c1noc2nc(C)n(CC(=O)Nc3ccc(OC)c(Cl)c3)c(=O)c12 0.841%
O=C(O)CSc1nnc(-c2ccc(O)cc2)o1 -12.5%
Cc1cc(N2CCC(C(=O)Nc3ccc(Cl)cc3)CC2)n2nc(C)c(-c3ccc(Cl)cc3)c2n1 -4.6%
Cc1ccc(CC(=O)Nc2c(C(=O)N3CCN(c4ccccc4)CC3)oc3ccccc23)cc1 -16.7%
Nc1ccc(S(=O)(=O)Nc2nccs2)cc1 -3.67%
O=C(CCC1N=C2c3ccccc3N=C(SCc3ccccc3Cl)N2C1=O)N1CCN(c2ccccc2)CC1 (centres undefined) -21.3%
COC(=O)c1ccc(NC(=O)c2cccc3c2C(=O)N(C2CCCCC2)C3)cc1 6.61%
COC(=O)CC1Oc2ccc(C)cc2-n2cc(-c3ccc(F)cc3)nc21 (centres undefined) -15.8%
O=C(O)c1cccc(-c2noc(-c3ccccc3F)n2)c1
COc1ccc(N2CCN(C(=O)c3cc(NS(=O)(=O)c4ccc(F)cc4)ccn3)CC2)cc1 -19.3%
CCOc1ccc(CCNC(=O)CCN2N=C(c3ccc(OC)cc3)CCC2=O)cc1OCC -23.2%
Cc1ccc(C)c(NC(=O)CSc2ncc3c(n2)-c2cc(Cl)ccc2N(Cc2ccccc2F)S3(=O)=O)c1 -3.68%
Cc1ccc(C)c(N2CCN(C(=O)CCn3c(=O)[nH]c4ccccc4c3=O)CC2)c1 -25.7%
CCCSCCCNC(=O)c1cc2n(n1)CCCN(Cc1ccc(C)cc1)C2=O -27.3%
COc1ccc(Cn2ccc3nc(C)c(C(=O)NCc4ccc(C)cc4)cc3c2=O)cc1 -19.3%
CC(CNC1CCCCC1)OC(=O)c1ccccc1 (centres undefined) -19.7%
CC1(C)CC(=O)c2cc(-c3nc(-c4ccc(Cl)cc4)cs3)c(=O)n(-c3ccc(F)cc3)c2C1 -19.6%
Cc1cc(Cl)ccc1NC(=O)CCn1nc(C)c2c(C)n(-c3ccccc3)nc2c1=O 10.9%
Cc1cccc(OCCSc2nc3ccc(NC(=O)COc4ccccc4F)cc3s2)c1 -20%
Cc1cccc(C)c1OCCn1c(C2CC(=O)N(Cc3ccc(F)cc3)C2)nc2ccccc21 (centres undefined) -42.9%
O=C(CCS(=O)(=O)c1cccc2nonc12)Nc1cccc(F)c1 20.7%
CC(C)NC(=O)CSc1nc2ccccc2c(=O)n1Cc1ccc(C(=O)NC(C)C)cc1 -10.9%
O=C(CSc1nc(=O)[nH]c2c1CCC2)NCc1ccc(Cl)cc1 -6.59%
Cc1noc2ncnc(N3CCN(c4ccccc4F)CC3)c12 -26.2%
COc1ccc(CN(Cc2ccco2)c2cnc(S(C)(=O)=O)nc2C(=O)Nc2ccc(C)c(C)c2)cc1 -8.85%
COC(=O)c1ccc(C(=O)Nc2ccc(-c3nc4cc(NC(=O)c5ccc(C(=O)OC)cc5)ccc4o3)cc2)cc1 -10.7%
Cc1cccc(CSc2nc3cccnc3n2Cc2ccc(C(=O)NCc3ccco3)cc2)c1 -17.3%
Cc1ccc(Cl)cc1NC(=O)Cn1cc2c(n1)CCCCC2 -2.13%
CCSc1ncc(Cl)c(C(=O)Nc2ccc(S(=O)(=O)Nc3nccc(C)n3)cc2)n1 -14.8%
C=CCC(CC=C)(CNC(=O)C(=O)Nc1ccc(C(=O)OCC)cc1)c1ccccc1 -17.2%
COC(=O)c1ccccc1NC(=O)c1cc2c(-c3ccc(OC)c(OC)c3)nn(C)c2s1 17.4%
Cc1ccc(NC(=O)C(Cc2ccccc2)n2cccc2)cc1C (centres undefined) -19.1%
Cc1ccc(-c2nc3ccccn3c2Nc2ccc3c(c2)OCO3)o1 12.4%
COc1ccc(-c2nn(-c3cccc([N+](=O)[O-])c3)c3c2cnc2cc4c(cc23)OCO4)cc1 -6.54%
CC(C)c1ccc(Nc2nc3c(S(=O)(=O)c4ccc(Br)cc4)nnn3c3ccsc23)cc1 -24.2%
CCCN(C(=O)c1cc2c(s1)-c1c(C)cccc1OC2)c1ccc(OCC)cc1 -10.1%
CCSc1nnnn1-c1cccc(C(=O)O)c1 18.5%
CCOC(=O)c1cc(-c2ccc(C)cc2)n(CC(=O)NC2CCCCCC2)c1C -3.95%
COc1cccc(NS(=O)(=O)c2ccc3c(c2)CCCN3C(=O)C2CCC2)c1 -17%
Cc1c(NC(=O)Nc2ccc(C#N)cc2)c(=O)n(-c2ccccc2)n1C -3.66%
Cc1cccc(-c2c3c(=O)n(C)c(=O)n(C)c3c3cnc4ccccc4n23)c1 4.95% [at 11.5 µM, percent change from vehicle, -100% = no light]
COc1ccc(C2c3[nH]c4ccc(OC)cc4c3CCN2C(=O)Nc2ccccc2)cc1 (centres undefined) -45.4%
CCC(=O)Nc1sc2c(c1C(=O)Nc1cccc(C)c1)CCCC2 -20.5%
Cc1ccc(NC(=O)Cn2cc(S(=O)(=O)c3ccccc3)c(=O)c3cc4c(cc32)OCO4)cc1 -27.2%
COc1ccccc1Nc1nn2c(=O)c3ccc(C(=O)NC(C)c4ccccc4)cc3nc2s1 (centres undefined) -21.2%
Cc1cccc(C(=O)Nc2ccc(OCc3cc(=O)n4c5c(sc4n3)CCCC5)cc2)c1 -8.8%
Cc1ccc(CNC(=O)CSc2nc3n[nH]c(C)c3c(=N)n2-c2cccc(C)c2)cc1 -32.9%
CCOc1ccc(NC(=O)Cn2cc(S(=O)(=O)N3CCN(c4ccccc4F)CC3)c3ccccc3c2=O)cc1 -10.7%
O=C(NCCc1csc2nc(-c3cccc(F)c3)nn12)c1ccc(Br)o1 -11.5%
COc1ccc(N(CC(=O)N2CCN(c3ccc(F)cc3)CC2)S(=O)(=O)c2c(C)n[nH]c2C)cc1 -23.3%
COc1ccc(-c2noc(-c3ccc(N4CCC(C)CC4)c([N+](=O)[O-])c3)n2)cc1OC -12.4%
CC(C)(C)c1ccc(C(=O)NC(Cc2c[nH]c3ccccc23)C(=O)OCC(=O)c2ccc(Cl)cc2)cc1 (centres undefined) -4.45%
CCCCNc1nc2c(c(=O)n(Cc3ccc(Cl)c(Cl)c3)c(=O)n2C)n1C -26.1%
Cc1ccc(CNC(=O)c2cccc(-n3cnc4cccnc43)c2)cc1 -6.48%
CCc1ccc(NC(=O)CCNS(=O)(=O)c2ccc3c(c2)CCCC(=O)N3)cc1 -7.69%
COc1cccc(C(=O)Nc2c3c(nn2-c2ccc(Cl)cc2)CS(=O)(=O)C3)c1 -13.1%
OC(C#CCN1CCCC1)(c1ccccc1)c1ccccc1 -9.42%
CCOC(=O)c1scc(-c2ccccc2)c1S(=O)(=O)N1CCN(c2ccccc2OC)CC1 -32.2%
COc1ccc(NC(=O)c2oc3ccc(S(=O)(=O)N(C)C4CCCCC4)cc3c2C)cc1 -37.3%
CCOC(=O)c1ccc(NC(=O)CSc2nc3c([nH]c4ccccc43)c(=O)n2C)cc1 -35%
Cc1cn2c(=O)cc(COc3ccccc3NC(=O)c3ccc(Cl)cc3)nc2s1 -11.7%
Cc1ccccc1-c1noc(-c2cc(-c3ccc(F)cc3)n[nH]2)n1 26.1%
Cc1ccc(NC(=O)C2CCC(CNS(=O)(=O)c3ccc4c(c3)CCCC(=O)N4)CC2)c(C)c1 (centres undefined) -7.42%
CCCCc1nc2ccccc2n1CC(=O)N(COCC)c1c(C)cccc1CC -26.9%
Cc1cc(C)cc(NC(=O)C2CCN(S(=O)(=O)c3ccc4c(c3)oc(=O)n4C)CC2)c1 -9.2%
COc1cc(NC(=O)c2ccc(-n3cnc4cccnc43)cc2)cc(OC)c1 -5.95%
COc1ccc(/C=C/C(=O)Nc2ccc3nc(N4CCCCC4)cc(C)c3c2)cc1OC -15.8%
Cc1ccc(S(=O)(=O)N(CC(=O)Nc2ccc3c(c2)OCO3)c2ccc(C)c(Cl)c2)cc1 -34.6%
CCN(CCN(C)C)C(=O)C1CCN(S(=O)(=O)c2c(C)noc2/C=C/c2ccccc2F)CC1 -47.7%
Cc1cc(C)c(NC(=O)Cn2nnc(-c3nc(-c4ccccc4)no3)c2N)c(C)c1 0.603%
CCCOC(=O)c1ccc(O)cc1 34.8% [at 116 µM, percent change from vehicle, -100% = no light]
Cc1cc(C)c2c(n1)SCCN2C(=O)Nc1ccc(C(=O)Nc2ccc(C(C)C)cc2)cc1 -36.5%
CCN(CC)c1ccc2cc(-c3nc(-c4cc(OC)c(OC)c(OC)c4)no3)c(=O)oc2c1 -1.07%
COC(=O)c1ccccc1NC(=O)Cn1c(=O)n(CCCC(=O)NCc2ccccc2OC)c(=O)c2ccccc21 -10.8%
Cc1ccc(C)c(NC(=O)C(c2ccccc2)N2Cc3ccccc3C2=O)c1 (centres undefined) -18.3%
CCOc1ccc(-n2nc(CO)c(C(=O)NCc3cccc(OC)c3)n2)cc1 18.6%
CC(=O)c1ccc(NC(=O)c2nc3nc(C)cc(C(F)F)n3n2)cc1 -1.75%
Cc1cc(C)cc(-n2ccn(CC(=O)Nc3ccccc3F)c(=O)c2=O)c1 -5.1%
COc1cc2cc(CNc3ccccc3)c(=O)n(CC(=O)Nc3cc(C)cc(C)c3)c2cc1OC -20.7%
O=C(CCC1N=C2c3ccccc3N=C(SCc3ccc(F)cc3)N2C1=O)NC1CCCCC1 (centres undefined) -5.89%
Cc1ccc(-c2cc(C(F)(F)F)nn2-c2ccc(S(N)(=O)=O)cc2)cc1
COc1ccccc1NC(=O)C1CCN(c2cnccn2)CC1 -8.03%
CC(=O)N1CCCc2cc(S(=O)(=O)N3CCN(c4cccc(C(F)(F)F)c4)CC3)ccc21 -29.7%
CSc1ncc(C(=O)Nc2cc(Cl)ccc2C)c(-c2ccccc2)n1 -21.2%
COc1ccc(C)cc1NC(=O)C1CCCN(S(=O)(=O)c2ccc3c(c2)oc(=O)n3C)C1 (centres undefined) -23.8%
CC(=O)Nc1ccc(S(=O)(=O)N2CCN(c3ccccc3)CC2)cc1 -24.8%
Cc1cccc(Cn2c(SCc3ccc(C(=O)NCCc4ccccc4)cc3)nc3cccnc32)c1 -8.86%
Cc1ccc(SCc2nc(-c3ccc(C(=O)NCc4ccccc4Cl)cc3)oc2C)cc1 -24%
CC(=O)Nc1cccc(NC(=O)C2(c3cccs3)CCOCC2)c1 -10.3%
COc1cccc(-c2nnc3n(CCc4ccccc4)c(=O)c4ccccc4n23)c1O -23.9%
